Measurements taken from patent US8529877B2, “Benzylidene compounds comprising phosphono-groups” (BASF SE, priority 2008, dated 2013).
For some of these results: The name of at least one read-out is uncertain. Some of these results come from one statement about several compounds together.

Experiment: UV shielding properties: UV spectra in ethanol (absorption maximum, A1%1cm)
Type: physicochemical
Conditions: UV spectrum in ethanol, at absorption maximum
Excerpt: The UV shielding properties of the bisbiphenyl triazine derivatives were investigated by measuring their UV spectra in ethanol. In the following table the investigated absorption maxima (λmax) together with the corresponding A^1%1cm values are listed.

SMILES	A1%1cm value
CCOP(=O)(OCC)C(=Cc1ccc(OC)cc1)P(=O)(OCC)OCC [Compound P-6]	above 500
CCOC(=O)/C(=C\c1ccc(OC)cc1)P(=O)(OCC)OCC [Compound P-1]	above 500
CCOC(=O)/C(=C\c1ccc(N(CC)CC)cc1)P(=O)(OCC)OCC [Compound P-3]	above 500
CCOC(=O)/C(=C\c1ccc(-c2ccccc2)cc1)P(=O)(OCC)OCC [Compound P-7]	above 500
CCOC(=O)/C(=C\c1ccc(/C=C(\C(=O)OCC)P(=O)(OCC)OCC)cc1)P(=O)(OCC)OCC [Compound P-2]	above 500

Experiment: Photostability of the UV filter in highly diluted ethanol solution under irradiation, analysed by UV spectroscopy
Type: physicochemical
Conditions: after irradiation of 10 MED
Method: The method used for assessment of photostability is based on the irradiation of a highly diluted solution of the UV-filter. The analysis after certain doses of irradiation was performed by UV-spectroscopy. The concentration of the UV-absorber in ethanol is adjusted to values between 1·10^−5 and 1·10^−6 mol/l, such that the absorbance of the solution in cuvette of 1 cm optical pathlength is equal or smaller than 0.2. The mutual protection of filter molecules can be excluded under such conditions.
Prior to irradiation of a sample the UVB-intensity at the sample position is measured with a UV-radiometer (RM-12, Dr. Gröbel Electronic GmbH). This radiometer was calibrated by comparison with a measurement of the spectral output of the metal halide lamp (including light guide and cut-off filter) using a wavelength-resolved radiometer (Gamma C11). Therefore the relationship of the reading of the RM-12 radiometer and the corresponding spectral output of the lamp is known, and one is able to determine the wavelength-resolved intensities by measuring the UVB-intensity. By changing the distance between the end of the light guide and the cuvette, the UVB-intensity can be varied in the range of 100 μW/cm^2 and 4500 μW/cm^2.
For sample irradiation the highest possible intensity was used (4.5 mW/cm^2 UVB-intensity measured with the Macam 103 radiometer). The irradiation time was varied from 0 to 180 min. The dose the sample has received after 180 minutes corresponds to 60 MED. During irradiation the sample was stirred. After certain intervals of irradiation, the samples were analysed in a UV-spectrometer (Perkin Elmer, Lambda 16).
From the absorbance values at each dose of irradiation the concentration may be calculated using Lambert-Beer's law. In order to get the half-life of the substance, a first order kinetic model was fitted to the experimental data. Since the UV-spectrum of the lamp and the UV-spectrum of the COLIPA standard sun are known, one can calculate the respective half-life of the UV-absorber under conditions of COLIPA standard sun irradiation [Bernd Herzog, Stefan Müller, Myriam Sohn, Uli Osterwalder, “New Insight and Prediction of Photostablity of Sunscreens”, SÖFW Journal 133, 26-36 (2007)].
The investigated half-time values and recovery after irradiation (10 MED) of some specific benzotropolones are listed in the table below: […]

SMILES	Recovery after 10MED [%]
CCOC(=O)/C(=C\c1ccc(NC(C)=O)cc1)P(=O)(OCC)OCC [Compound P-17]	99.8
CCOP(=O)(OCC)C(=Cc1ccc(-c2ccccc2)cc1)P(=O)(OCC)OCC [Compound P-5]	78
CCOC(=O)/C(=C\c1cc(OC)c(OC)c(OC)c1)P(=O)(OCC)OCC [Compound P-22]	99.3
CCOC(=O)/C(=C\c1ccc(-c2ccc(/C=C(\C(=O)OCC)P(=O)(OCC)OCC)cc2)cc1)P(=O)(OCC)OCC [Compound P-19]	99.2
CCOC(=O)C(=C1c2ccccc2-c2ccccc21)P(=O)(OCC)OCC [Compound P-20]	99.6
